Test results: paper PMC4336329 (PLoS ONE, 2015)
Screen size: about 310,000 compounds; about 2,200 (0.71%) showed an effect of 50% or more. The effect is printed as a negative number. The list shows a part of the results.

target: human ether-à-go-go-related gene (hERG) potassium channel (human, UniProt Q12809); assay: primary screen, population patch clamp on CHO cells stably expressing hERG
Sequence (Q12809 whole entry, looked up): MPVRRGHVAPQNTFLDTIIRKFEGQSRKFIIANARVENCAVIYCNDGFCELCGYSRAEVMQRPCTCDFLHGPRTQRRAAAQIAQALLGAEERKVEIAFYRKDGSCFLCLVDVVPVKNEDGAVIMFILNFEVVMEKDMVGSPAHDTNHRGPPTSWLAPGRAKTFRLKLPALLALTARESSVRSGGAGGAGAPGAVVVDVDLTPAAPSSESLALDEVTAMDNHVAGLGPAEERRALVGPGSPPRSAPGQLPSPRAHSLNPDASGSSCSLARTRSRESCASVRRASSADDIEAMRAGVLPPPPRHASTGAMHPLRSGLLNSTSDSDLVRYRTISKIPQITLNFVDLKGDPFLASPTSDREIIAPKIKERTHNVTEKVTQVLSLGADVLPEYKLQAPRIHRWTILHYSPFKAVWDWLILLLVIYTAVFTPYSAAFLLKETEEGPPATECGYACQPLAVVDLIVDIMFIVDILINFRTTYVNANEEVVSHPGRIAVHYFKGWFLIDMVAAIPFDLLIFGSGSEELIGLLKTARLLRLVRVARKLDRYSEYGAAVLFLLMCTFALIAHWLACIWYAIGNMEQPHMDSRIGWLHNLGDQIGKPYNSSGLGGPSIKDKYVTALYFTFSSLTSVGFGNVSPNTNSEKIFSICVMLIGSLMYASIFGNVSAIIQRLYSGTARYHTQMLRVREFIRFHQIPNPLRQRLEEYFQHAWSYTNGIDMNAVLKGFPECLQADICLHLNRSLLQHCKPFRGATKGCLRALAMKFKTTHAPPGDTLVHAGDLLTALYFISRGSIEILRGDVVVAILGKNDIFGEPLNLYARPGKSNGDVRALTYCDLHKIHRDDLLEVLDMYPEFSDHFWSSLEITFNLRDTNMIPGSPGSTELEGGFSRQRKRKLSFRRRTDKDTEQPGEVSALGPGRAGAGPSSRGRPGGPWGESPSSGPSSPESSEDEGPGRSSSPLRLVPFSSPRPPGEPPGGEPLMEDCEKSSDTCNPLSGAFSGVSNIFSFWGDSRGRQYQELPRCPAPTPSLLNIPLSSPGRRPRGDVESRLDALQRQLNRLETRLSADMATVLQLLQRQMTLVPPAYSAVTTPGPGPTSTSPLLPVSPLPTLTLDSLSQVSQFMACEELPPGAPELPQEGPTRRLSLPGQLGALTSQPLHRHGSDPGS

Row | SMILES | hERG current change (%, negative = inhibition) at 1uM [%]
1 | COc1cccc(NC(=O)Nc2cc(Cl)ccc2C)c1 | 19.7
2 | CN1CCN(C2CCN(Cc3ccc(O)c4ncccc34)CC2)CC1 | 9.94
3 | O=C(CSc1ncn[nH]1)Nc1ccc(S(=O)(=O)Nc2ncccn2)cc1 | 24.3
4 | O=C(NC1CCCC1)C(c1cccnc1)N(C(=O)c1csnn1)c1ccccc1 (stereo not shown) | 9.37
5 | Cc1cc(/C=C(\C#N)C(=O)NCc2cccs2)c(C)n1-c1ccccc1F | 4.98
6 | Cc1ccc(Nc2ccc(C(N)=O)cc2[N+](=O)[O-])cc1 | 15.9
7 | CCCCCn1c(=O)[nH]c2cc(C(=O)NCCCN(CC)CC)ccc2c1=O | 1.39
8 | CCc1ccc(C(=O)NNC(=O)C2CSC3(C)CCC(=O)N23)cc1 (stereo not shown) | 3.26
9 | CCCCOc1ccc(C(=O)NNC(=O)C2C3CCC(C3)C2C(=O)O)cc1 (stereo not shown) | 7.18
10 | Cc1ccc(NC(=S)N(CCN2CCOCC2)Cc2cc3cc4c(cc3[nH]c2=O)OCCO4)cc1 | 2.59
11 | COc1ccc(CSc2nncn2C)cc1[N+](=O)[O-] | 8.66
12 | CC1CN(C(=S)SCC(=O)c2ccccc2)CC(C)O1 (stereo not shown) | 4.52
13 | Cc1ccccc1NC(=O)c1nn(C)c2c1CS(=O)(=O)c1ccccc1-2 | 10.4
14 | COc1ccc(N2CCN(C(=O)c3ccc4c(c3)CCN4S(=O)(=O)c3ccccc3)CC2)cc1 | 6.88
15 | CCn1nc(C(=O)Nc2nc3ccccc3[nH]2)c2ccccc2c1=O | 9.33
16 | CCN(CC)C1CCN(C(=O)CCn2nnnc2CN2CCOCC2)C1 (stereo not shown) | 19.2
17 | Cc1cccc2sc(N(CCCN(C)C)C(=O)CCS(=O)(=O)c3ccccc3)nc12 | 0.941
18 | S=C1SCN(CC2CC2)CN1CC1CC1 | 8.33
19 | COc1cc(C)c(S(=O)(=O)N2CCN=C2c2ccccc2)cc1C | 4.29
20 | O=C(c1ccc(S(=O)(=O)Nc2ccc(F)cc2)cc1)N1CCN(C(=O)c2ccco2)CC1 | 1.55
21 | CC(Oc1ccc(Br)cc1)C(=O)Nc1ccc(N2CCOCC2)cc1N1CCOCC1 (stereo not shown) | -3.69
22 | COc1ccccc1-c1nc(C#N)c(N2CCN(c3ccccc3)CC2)o1 | -5.28
23 | COc1ccc(CC2=CC(=O)c3ccccc3C2=O)cc1 | 13.1

Row | SMILES | hERG current change (%, negative = inhibition) at 1uM [%]
24 | CCOc1ncccc1C(=O)N(C)CC(=O)Nc1ccc(C)cc1 | -4.04
25 | O=C(Nn1cnc2ccccc2c1=O)c1cccc(Cl)c1 | 10.2
26 | CCN(CC)S(=O)(=O)c1ccc2c(c1)N(CC(=O)NCCCN1CC(C)CC(C)C1)C(=O)CO2 (stereo not shown) | 8.87
27 | COc1ccc(N2CCN(C(=O)c3cccnc3)CC2)c([N+](=O)[O-])c1 | -16.1
28 | CSc1ccc(C(=O)C2CCCN(Cc3cccc4nccnc34)C2)cc1 (stereo not shown) | -82
29 | COc1cc2c(cc1OC)C(C1(O)CCCCC1)NCC2 (stereo not shown) | 15
30 | CCOC(=O)c1c(C)c(C(=O)OCC)n(C)c1C | 5.67
31 | COc1ccc(O)c(-c2cc(-c3ccccc3[N+](=O)[O-])[nH]n2)c1 | -1.33
32 | COc1ccccc1C(=O)N1CCN=C1c1ccccc1 | 0.902
33 | COc1cc(Cl)ccc1OCc1cc(C(=O)N2CCCCCC2)no1 | 13.9
34 | Cc1nn(CC(=O)Nc2ccc(Cl)cn2)c(C)c1Br | 3.29
35 | COc1ccc(C(=O)N/C(=C\c2cn(C)c3ccccc23)C(=O)N2CCN(C)CC2)cc1OC | 14.5
36 | CCCCn1c(N)c(S(=O)(=O)c2ccc(C)cc2)c2nc3ccccc3nc21 | 6.52
37 | CCOC(=O)CSc1nc(=O)n2cc(C)ccc2n1 | 5.71
38 | c1ccc2c3c(ccc2c1)OCC1CONC31 (stereo not shown) | 10.8
39 | COc1ccc(C(=O)Nc2nc(-c3ccc(S(=O)(=O)N4CCOCC4)cc3)cs2)cc1 | -2.5
40 | Cc1ccc2sc(N(CCN(C)C)C(=O)c3ccc(S(=O)(=O)N4CC(C)OC(C)C4)cc3)nc2c1C.Cl (stereo not shown) | 3.51
41 | COC(=O)c1ccccc1NC(=O)C1CCC(=O)N1S(=O)(=O)c1ccc(C)cc1 (stereo not shown) | 0.921
42 | COc1ccccc1NC(=O)CSc1nc2ccccc2n1C(C)=O | -6.42
43 | O=C(CSc1nc(=O)n(CCN2CCOCC2)c2c1CCCC2)Nc1ccc([N+](=O)[O-])cc1 | 1.39
44 | COc1ccc(OC)c(NC(=O)/C=C/c2ccccc2[N+](=O)[O-])c1 | -1.33
45 | COc1ccc(N(CC(=O)Nc2cccc(F)c2)S(=O)(=O)c2c(C)[nH]c(=O)[nH]c2=O)cc1 | 14.9
46 | O=C(CCc1nnc(-c2ccc(-c3ccccc3)cc2)o1)NCCc1ccccn1 | 3.54

Row | SMILES | hERG current change (%, negative = inhibition) at 1uM [%]
47 | CCOc1ccc(-c2nc(S(=O)(=O)c3ccccc3)c(NC)o2)cc1 | 12.6
48 | O=C(c1ccc(S(=O)(=O)N2CCCC2)cc1)N1CCCC(C(F)(F)F)C1 (stereo not shown) | 4.41
49 | Cc1ncsc1CCSc1n[nH]c(=O)n1-c1ccccc1 | 8.71
50 | CCOC(=O)c1c(S(=O)(=O)Nc2ccccn2)c(C)n(C)c1C | 6.91
51 | CCN(CC)S(=O)(=O)c1ccc(N2CCOCC2)c(NC(=O)COc2ccccc2C)c1 | 6.38
52 | CCOC(=O)C1=C(C)C(c2ccccc2)NC(=S)N1 (stereo not shown) | -1.84
53 | C=CCn1c(SCC(=O)C(C)(C)C)nnc1-c1cccs1 | -9.56
54 | O=C(O)CCCCCCNC(=O)c1cncc(O)c1 | 15.9
55 | Cc1oc(CSCC2CCCO2)cc1C(=O)O (stereo not shown) | 1.96
56 | Cc1cccc(NC(=S)NC(=O)CCc2ccccc2)c1 | -8.59
57 | O=C(CN1CCCC1)NCC(=O)Nc1ccc(F)cc1 | 11.9
58 | O=C(O)C(=O)O.c1cc2c(cc1CN1CCN(C3CCCCCC3)CC1)OCO2 | 3.18
59 | CCN(CCNC(=O)C1CCN(Cc2nc(-c3ccc(Cl)cc3)oc2C)CC1)c1ccccc1 | -6.12
60 | CCn1c(SCC(=O)OC(C)C)nnc1-c1cccc(Cl)c1 | 10
61 | O=C(N/N=C/c1ccc(Br)s1)c1ccccn1 | -1.3
62 | Cc1ccccc1CSc1nnc(C)n1N | -5.78
63 | CCOCCCNC(=O)Cn1cnc2c(cnn2-c2ccc(OC)cc2)c1=O | 4.24
64 | O=C(CSc1ncccn1)NC(=O)Nc1ccc2c(c1)OCCO2 | 5.37
65 | CC(C)c1cc(C(N)=O)c(NC(=O)C2CCC2)s1 | -5.79
66 | CN1CCN(Cc2cccc(Oc3ccccc3)c2)CC1 | 5.96
67 | Cc1ccc(CSCC(=O)N(C)CC(=O)Nc2ccccc2C(F)(F)F)cc1 | 8.42
68 | Cc1ccc(S(=O)(=O)N2CCCC(C(=O)NNCC(=O)Nc3cc(F)ccc3F)C2)cc1 (stereo not shown) | -0.56
69 | Cn1nc(NC(=O)CC23CC4CC(CC(C4)C2)C3)c2c(F)cccc21 | 11.9

Row | SMILES | hERG current change (%, negative = inhibition) at 1uM [%]
70 | Cc1cccc(N2CCN(Cc3nc(C4CC4)no3)CC2)n1 | 12.2
71 | CC(=O)N/N=C(\C)CC(=O)Nc1cccc2c1CCCC2 | 16.1
72 | Cc1ccc(C)n1-c1ncn[nH]1 | 15.4
73 | OCCCNc1nnc(-c2ccccc2)c2ccccc12 | 6.76
74 | CC(C)(C)OC(=O)N1CCC(C(=O)NCC2CCCO2)CC1 (stereo not shown) | 13.2
75 | Cc1ccc(S(=O)(=O)NCCNC(=O)C2CCCNC2=O)cc1 (stereo not shown) | 9.69
76 | CCOc1ccc(CCNC(=O)Cn2ncn3nc(-c4ccc(OC)cc4)cc3c2=O)cc1 | 6.1
77 | CC(C)(C)c1ccc(OCC(O)CSc2ncn[nH]2)cc1 (stereo not shown) | 9.31
78 | CCCCN(C)/C=N/c1c(C#N)cnn1-c1ccc(C)cc1 | -2.79
79 | CCn1c(=O)c2c(n3cnnc13)-c1ccccc1CC21CCCCC1 | 11
80 | Cc1ccc(NC(=S)Nc2cccc3ccccc23)cc1F | 7.59
81 | C=CCNC(=O)C(=O)NCC1CCCN1S(=O)(=O)c1cccs1 (stereo not shown) | 16.5
82 | CNc1csc(C)c(C)c1=O | 20.5
83 | O=C1CN(C(=O)c2ccc(Br)o2)C(c2ccccc2)c2cc(Br)ccc2N1 (stereo not shown) | 4.89
84 | CCc1ccc(-n2c(Cc3ccccc3)n[nH]c2=S)cc1 | 1.36
85 | CCS(=O)(=O)N1CCC(c2nc(-c3ccc(C)cc3)no2)CC1 | -0.656
86 | Cc1cccc(NC(=O)C2C(c3ccccc3)C2(Cl)Cl)c1 (stereo not shown) | 9.25
87 | COc1ccc(-c2cc(C(=O)NCC3CCCO3)c3ccccc3n2)c(OC)c1 (stereo not shown) | 10.5
88 | Cc1ccc(C)c(NC(=S)N(CCN(C)C)C(C)c2ccccn2)c1 (stereo not shown) | -0.601
89 | COC(=O)C1=C(c2ccc(OC(F)(F)F)cc2)C[C@@H]2CC[C@H]1N2C(=O)NCCOc1ccccc1Cl | 11.4
90 | Cl.OCCN1CCN(c2nc(NCc3ccco3)c3ccccc3n2)CC1 | -39.4
91 | O=C(CSc1ccc2nnc(-c3cccc(F)c3)n2n1)NCc1ccco1 | -37.2
